Holding throughout (experiment): Primary Screen for Target Class Profiling of Small Molecule Inhibitors of Methyltransferases
Experiment [1] has as its target Glycine N-methyltransferase (Homo sapiens) (UniProt Q14749). Conditions: purified enzyme, MTase-Glo SAH luminescence; measured here: GNMT inhibition; at 40 µM; stronger effect = lower value. The essentials: (§1)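 Each enzyme was assayed with SAM and its substrate. SAH formation detected by MTase-Glo luminescence; single-point 40 uM screen[…].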
Experiment [2] addresses Guanidinoacetate N-methyltransferase (Homo sapiens) (UniProt Q14353). Conditions: purified enzyme, MTase-Glo SAH luminescence; measured here: GAMT inhibition; at 40 µM; stronger effect = lower value. The essentials:
as §1

Experiment [3] deals with Histamine N-methyltransferase (Homo sapiens) (UniProt P50135). Conditions: purified enzyme, MTase-Glo SAH luminescence; measured here: HNMT inhibition; at 40 µM; stronger effect = lower value. In short, it runs like this: as §1
Experiment [4] has as its target Nicotinamide N-methyltransferase (Homo sapiens) (UniProt P40261). Conditions: purified enzyme, MTase-Glo SAH luminescence; measured here: NNMT inhibition; at 40 µM; stronger effect = lower value. In short, it runs like this: as §1
In experiment [5] the target is Phenylethanolamine N-methyltransferase (Homo sapiens) (UniProt P11086). Conditions: purified enzyme, MTase-Glo SAH luminescence; measured here: PNMT inhibition; at 40 µM; stronger effect = lower value. The essentials: as §1

The other results are listed elsewhere or left out. These are further read-outs of the screen, such as a control signal, another cell line or another target. No call is given for them.
On the % scale 0 is the no-effect control and ±100 the full control effect.

`CC(=O)OC(CSC1CCC(=O)OC(C)CCC(=O)C1)C(=O)O` (stereo not drawn): the activity change, negative = inhibition was 3.16% in experiment [1]; 6.49% in experiment [2]; 6.08% in experiment [3]; -6.49% in experiment [4]; 5.07% in experiment [5].
On to `CC(C)(C)c1ccc(C(O)CCCN2CCC(C(O)(c3ccccc3)c3ccccc3)CC2)cc1` (stereo not drawn), for which the activity change, negative = inhibition in experiment [1] is 2.35%; in experiment [2], 9.43%; in experiment [3], 8.03%; in experiment [4], -8.53%; in experiment [5], -2.55%.
Turning to `CCc1ccc(NC(=O)Cn2c(=O)oc3cc(S(=O)(=O)N4CCCC4)ccc32)cc1`, the activity change, negative = inhibition is -4.46% in experiment [1]; 3.16% in experiment [2]; -1.92% in experiment [3]; -0.873% in experiment [4]; -20.2% in experiment [5].
In the same order, the values of `Cc1ccc(S(=O)(=O)c2nnn3c2nc(NCCC(C)C)c2ccccc23)cc1` are -5.21%, 0%, -0.665%, 2.95% and -4.45%.
With `Cc1cnc(C2CCOCC2)n1C1CCNCC1`, the activity change, negative = inhibition in experiment [1] is -2.98%; in experiment [2] it was -2.75%; in experiment [3], 0.378%; in experiment [4], -2.02%; in experiment [5] it was 0.024%.
As to `COc1cc2c(cc1O)C1(Cc3ccc4c(c3C1=O)OCO4)N(C)CC2` (stereo not drawn), the activity change, negative = inhibition was 1.08% in experiment [1]; -2.15% in experiment [2]; 3.88% in experiment [3]; -11.3% in experiment [4]; -2.51% in experiment [5].
As to `CN(C)CCn1cc(S(=O)(=O)c2cccc(F)c2)c2cccnc21`, the activity change, negative = inhibition in experiment [1] is -0.484%; in experiment [2], 2.67%; in experiment [3], 10.3%; in experiment [4] it was -11.5%; in experiment [5] it was 4.15%.
In the same order, the values of `C=C1CCC2C(C)(C)CC(=O)CC2(C)C1CCC(C)CCO` (stereo not drawn) are -8.69%, -11.7%, 1.01%, -30.4% and -6.92%.
For the compound `CCCOC(c1cc2nccc(C(=O)O)c2[nH]1)c1ccccc1Cl` (stereo not drawn), the activity change, negative = inhibition is -0.743% in experiment [1]; -13.2% in experiment [2]; 7.69% in experiment [3]; -22.7% in experiment [4]; -5.2% in experiment [5].
Regarding `CCC(C(=O)N1CCN(c2ccccc2)CC1)n1ccc2cc(S(=O)(=O)N3CCCCC3)ccc21` (stereo not drawn), the activity change, negative = inhibition was determined as 1.84% in experiment [1]; 0% in experiment [2]; 1.15% in experiment [3]; 2.08% in experiment [4]; 1.45% in experiment [5].
On to `NCCCNCCSP(=O)(O)O`, for which the activity change, negative = inhibition in experiment [1] was 4.9%; in experiment [2], 15.3%; in experiment [3], 9.42%; in experiment [4], -6.11%; in experiment [5], 6.58%.
For `O=S(=O)(N[C@H]1CO[C@H]2[C@@H]1OC[C@@H]2n1cc(CC2CCCCC2)nn1)c1cccs1`, the activity change, negative = inhibition was -4.81% in experiment [1]; -4.94% in experiment [2]; -1.93% in experiment [3]; -7.59% in experiment [4]; -9.11% in experiment [5].
`Cc1cc2c(F)c(Oc3ncnn4cc(OCC(C)OC(=O)C(C)N)c(C)c34)ccc2[nH]1` (stereo not drawn): the figures for the activity change, negative = inhibition in experiment [1] and in experiment [3] were -5.2% and -20.1%, respectively.
For `CN(CC1CCCCO1)C(=O)c1coc(COc2ccc3c(c2)OCO3)n1` (stereo not drawn), the activity change, negative = inhibition was -2.44% in experiment [1]; -3.59% in experiment [2]; -3.25% in experiment [3]; -5.71% in experiment [4]; -3.42% in experiment [5].
Turning to `Cc1ccc([S+](=O)([O-])N2CCCC2C(=O)N2CCC(c3nc4ccncc4[nH]3)CC2)cc1` (stereo not drawn), the activity change, negative = inhibition in experiment [1] is -5.71%; in experiment [2], -5.21%; in experiment [3], -18.2%; in experiment [4], -16.5%; in experiment [5], -8.85%.
As to `CCN1/C(=C/C(C)=O)Sc2ccc(O)cc21`, the activity change, negative = inhibition in experiment [2] was 9.49%; in experiment [4], -17.8%; in experiment [5] it was 2.45%.
Take `C=C[C@H]1[C@H](O[C@@H]2O[C@H](CO)[C@@H](O)[C@H](O)[C@H]2O)OC=C(C(=O)OC)[C@H]1C/C=C(/C=O)[C@@H]1C(C(=O)OC)=CO[C@@H](O[C@@H]2O[C@H](CO)[C@@H](O)[C@H](O)[C@H]2O)[C@@H]1C=C`: the activity change, negative = inhibition in experiment [1] was 0.722%; in experiment [2] it was 6.14%; in experiment [3], 9.4%; in experiment [4], -4.98%; in experiment [5], 1.41%.
For the compound `Cc1ccc(NS(=O)(=O)c2cc3c(cc2Cl)CCC(=O)N3)cc1Cl`, the activity change, negative = inhibition is -11.8% in experiment [2], -19.7% in experiment [4] and -3.83% in experiment [5].
`CC1=C2C[C@@]3(C)[C@@H](CCC[C@@H]3C)C[C@@]2(O)OC1=O`: the activity change, negative = inhibition in experiment [1] is 3.23%; in experiment [2], 7.05%; in experiment [3], 13.4%; in experiment [4], -7.35%; in experiment [5] it was 3.52%.
For the compound `COc1cc(Nc2nc3c(s2)CCCC3c2ccccc2)ccc1-n1cnc(C)c1` (stereo not drawn), the activity change, negative = inhibition in experiment [1] was 4.78%; in experiment [2] it was 6.27%; in experiment [3], 7.25%; in experiment [4], -5.87%; in experiment [5], 3.27%.
Taken in the same sequence, the figures for `CC(C)CCNC(=O)Cn1ccc2cc(S(=O)(=O)N3CCCC3)ccc21` were -0.212%, 1.74%, -8.9%, 1.01% and -4.31%.
Regarding `COc1ccc(OC)c2c1cc1n2CC(C)(C(=O)NC2CCCCC2C)N(Cc2ccccn2)C1=O` (stereo not drawn), the activity change, negative = inhibition in experiment [1] was 1.54%; in experiment [2], 0%; in experiment [3] it was 8.71%; in experiment [4], -12.2%; in experiment [5], 2.6%.
As to `CCOCCCNC(=O)CCc1nc(C2CCCN2C(=O)c2ccccc2)no1` (stereo not drawn), the activity change, negative = inhibition in experiment [1] is -1.3%; in experiment [2], -2.37%; in experiment [3], 1.5%; in experiment [4], -3.03%; in experiment [5], -1.26%.
For `Cn1c(=O)c2ccc(C(=O)NC3CCCC3)cc2n2c(=O)n(CC(=O)c3cccc(Cl)c3)nc12`, the activity change, negative = inhibition in experiment [1] is 2.77%; in experiment [2] it was 0%; in experiment [3], 0.039%; in experiment [4] it was 1.36%; in experiment [5] it was 2.21%.
Turning to `O=C1NCCN2CC3(CCN(C(=O)C4(c5ccccc5)CC4)CC3)CC12` (stereo not drawn), the activity change, negative = inhibition in experiment [1] was -10.2%; in experiment [2] it was -1.66%; in experiment [3], -2.4%; in experiment [4], -3.29%; in experiment [5], -6.96%.
As for `O=S(=O)(NCC1CCOCC1)c1cccc(F)c1`, the activity change, negative = inhibition in experiment [1] is 0.879%; in experiment [2], 1.51%; in experiment [3] it was 2.36%; in experiment [4] it was -1.08%; in experiment [5], 1.32%.
`C[C@@H]1CN(Cc2ccccc2)C[C@H]1c1nc2c(cnn2C2CCOCC2)c(=O)[nH]1`: the activity change, negative = inhibition is -3.09% in experiment [1]; -3.47% in experiment [2]; -1.46% in experiment [3]; -22.2% in experiment [4]; -9.46% in experiment [5].
Regarding `O=C(NCc1ccccn1)c1ccc2c(=O)nc3c(-c4cccc(F)c4)n[nH]n3c2c1`, the activity change, negative = inhibition in experiment [1] is -11.7%; in experiment [2], 4.09%; in experiment [3] it was 0.639%; in experiment [4], 0.257%; in experiment [5], -5.48%.
Turning to `Cc1cc(C2CCCN2C(=O)c2ccnn2C)on1` (stereo not drawn), the activity change, negative = inhibition in experiment [1] is -1.62%; in experiment [2], -4.59%; in experiment [3], -1.87%; in experiment [4], -1.52%; in experiment [5], 2.66%.
In the same order, the values of `CCn1c(CO)nnc1C1CC(NC(=O)CCc2c(C)nn(C)c2C)C1` (stereo not drawn) are -5.38%, -6.69%, -0.976%, -9.65% and -2.17%.
